Reference: PubChem BioAssay AID1476 (National Center for Advancing Translational Sciences (NCATS), 2009)
Screen size: about 200,000 compounds; about 4,500 (2.2%) were called active. This list was built around the results that the source calls inconclusive (neither active nor inactive); the mix of calls is not that of the screen. Calls come from the whole dose curve; as a rule, active = well fitted inhibition curve with a large enough effect; inconclusive = small, poorly fitted or top-dose-only effect, or effect the other way; inactive = flat fitted curve, though single readings scatter. Potencies beside an inconclusive call are fits to weak or partial responses and may not hold up.

These compounds were tested against Cruzipain (Trypanosoma cruzi) (UniProt P25779) (assay: qHTS Assay for Promiscuous and Specific Inhibitors of Cruzain (without detergent)). Details: purified cruzain, Z-FR-AMC fluorescence, no detergent.
UniProt P25779, sequence (P25779 whole entry, looked up): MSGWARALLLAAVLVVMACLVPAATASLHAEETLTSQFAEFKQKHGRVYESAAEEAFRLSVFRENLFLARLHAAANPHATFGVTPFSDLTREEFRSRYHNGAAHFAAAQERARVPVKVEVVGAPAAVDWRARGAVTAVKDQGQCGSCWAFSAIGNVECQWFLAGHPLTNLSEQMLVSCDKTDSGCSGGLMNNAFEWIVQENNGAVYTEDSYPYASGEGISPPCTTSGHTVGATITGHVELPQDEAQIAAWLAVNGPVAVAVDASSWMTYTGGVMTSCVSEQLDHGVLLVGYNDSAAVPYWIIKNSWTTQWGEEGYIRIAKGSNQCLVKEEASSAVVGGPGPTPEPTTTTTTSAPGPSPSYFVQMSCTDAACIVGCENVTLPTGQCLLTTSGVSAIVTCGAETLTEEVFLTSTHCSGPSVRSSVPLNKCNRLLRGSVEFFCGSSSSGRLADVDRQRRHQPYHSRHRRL
Procedure, shortened: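 Purified cruzain at 1.5 nM, pre-incubated 15 min with compound at room temperature in 100 mM sodium acetate pH 5.5, 5 mM DTT, 0.00005% Triton X-100. Reaction started with 2 uM Z-FR-AMC; AMC fluorescence increase over 60 s gives rate.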
Note: nearly all actives have a fitted effect of over 40% in size.
Potency is the fitted concentration of half-maximal effect; tags give direction and shape of the fitted curve.
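Throughout, for max response, negative = inhibition: plate controls were enzyme without inhibitor for no effect and buffer without enzyme for full effect.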

SMILES	Potency	max response, negative = inhibition
COc1cc(NC(=O)CSc2ccc(-c3sc(C)nc3C)nn2)cc(OC)c1	inconclusive: 39.8 µM [activator, single point]	–
COC(=O)c1ccc(NC(=O)CNC(=O)C2CCCCC2)cc1	–	inactive: 0.568%
CC1CCC(C(C)C)C(OC(=O)COC(=O)c2ccc(=O)[nH]c2)C1 (configuration not stated)	inconclusive: 39.8 µM [activator, single point]	–
Nc1ncc(S(=O)(=O)N2CCN(c3ccccc3)CC2)cn1	–	inactive: 6.14%
O=C(CSc1nc2ccccc2n1Cc1cccc(C(F)(F)F)c1)NCc1ccccc1	inconclusive: 25.1 µM [activator, partial curve, poor fit]	–
Cn1cccc1Cc1nnc(SCC(=O)NCc2ccc3c(c2)OCO3)n1CCc1ccccc1	inconclusive: 39.8 µM [activator, single point]	–
CCCOc1ccc(C(=O)Nc2cccc(NC(=O)c3ccc(Cl)cc3Cl)c2)cc1	inconclusive: 39.8 µM [inhibitor, single point]	–
C/C(=N\NC(=O)c1cccc(N/N=C(\C)c2ccccc2)c1)c1ccccc1	inconclusive: 31.6 µM [inhibitor, single point]	–
Cc1csc2nc(COC(=O)c3ccc(NC(=O)c4ccccc4Br)cc3)cc(=O)n12	–	inactive: -22.3%
COc1ccc(OC)c(NC(=O)CN(c2ccccc2OC)S(=O)(=O)c2ccc(C)cc2)c1	–	inactive: -19.6%
COCCN(CCOC)S(=O)(=O)c1ccc(C(=O)Nc2nc(-c3ccccc3)c(C(=O)c3ccccc3)s2)cc1	inconclusive: 39.8 µM [activator, single point]	–
COC(=O)CSc1c(-c2ccccc2)c2cc(Cl)ccc2[nH]c1=O	inconclusive: 39.8 µM [activator, single point]	–
COC(=O)c1ccccc1NC(=O)Cc1nc(-c2ccc(OC)cc2)no1	–	inactive: -15.5%
CCN1CCN(c2ccc(S(=O)(=O)N(CC)CC)cc2[N+](=O)[O-])CC1	–	inactive: -7.21%
COc1cc(-c2nnc3n(CCc4ccccc4)c(=O)c4ccccc4n23)cc(OC)c1OC	inconclusive: 31.6 µM [activator, single point]	–
COc1cccc(-c2nnc(SCC(=O)N3CCc4ccccc43)o2)c1	inconclusive: 15.8 µM [activator, partial curve]	–
CCOc1cc(/C=C2\C(=O)N(c3ccc(C(N)=O)cc3)N=C2C)ccc1OC(=O)c1cccs1	inconclusive: 31.6 µM [activator, single point]	–
CN(c1ccccc1C(=O)O)S(C)(=O)=O	–	inactive: -11%
Cc1cc(C=C2C(=O)c3ccccc3C2=O)c(C)n1-c1ccccc1	inconclusive: 25.1 µM [inhibitor, single point]	–
CCOc1ccccc1NC(=O)Nc1ccccc1OCc1cc(=O)n2ccccc2n1	inconclusive: 12.6 µM [activator, partial curve]	–
O=C(Cn1ccc2cc(S(=O)(=O)N3CCCCCC3)ccc21)NCCc1ccccc1Cl	–	inactive: 8.51%

SMILES	Potency	max response, negative = inhibition
Cc1ccc(C2CC(=O)c3cnc(N4CCN(c5ccccc5)CC4)nc3C2)cc1 (configuration not stated)	inconclusive: 39.8 µM [inhibitor, single point]	–
CCCCSCCCNC(=O)c1cn(CC)c2ccc(S(=O)(=O)N(C)C3CCCCC3)cc2c1=O	inconclusive: 12.6 µM [activator, partial curve]	–
Cc1ccc(-n2c(C)cc(/C=C(\C#N)C(=O)NCC3CCCO3)c2C)cc1 (configuration not stated)	inconclusive: 39.8 µM [activator, single point]	–
Cc1cccc(-c2nnc(-c3ccc(N)cc3)o2)c1	inconclusive: 31.6 µM [inhibitor, single point]	–
Cc1ccc(-c2noc(CN(C(=O)c3ccc(C(C)(C)C)cc3)C(C)C)n2)cc1	–	inactive: 2.92%
COc1ccc(OC)c(N(CC(N)=O)S(=O)(=O)c2ccc(OC)c(OC)c2)c1	–	inactive: 1.21%
COc1ccc(-n2c(=O)c3c4c(sc3n(Cc3c(F)cccc3Cl)c2=O)CN(C(C)=O)CC4)cc1OC	–	inactive: 1.34%
COc1ccc(C2CC(=O)N(Cc3cccc(C)c3)c3c2c(C)nn3-c2nc(C)cc(C)n2)c(OC)c1 (configuration not stated)	inconclusive: 20 µM [activator, partial curve]	–
CCOC(=O)c1c(-c2ccc(C)o2)csc1NC(=S)NC(=O)c1ccccc1Br	active: 31.6 µM	–
COCCn1c(=O)c(-c2ccc(OC)cc2)nc2cnc(Oc3ccc(OC)cc3)nc21	inconclusive: 39.8 µM [activator, single point]	–
CS(=O)(=O)N(CC(=O)Nc1ccccc1Sc1ccccc1)C1CCCCC1	inconclusive: 39.8 µM [activator, single point]	–
O=S(=O)(c1ccc2c(c1)C(=NO)c1cc(S(=O)(=O)N3CCCCC3)ccc1-2)N1CCCCC1	inconclusive: 39.8 µM [inhibitor, single point]	–
CN1CCc2nc(SCC(=O)Nc3cccc(F)c3)c(C#N)c(-c3cccs3)c2C1	active: 20 µM	–
N#Cc1nc(N2CCCCC2)nc(N2CCOCC2)n1	active: 1 µM	–
C/C(Cl)=C/Cn1c(SCc2ccc(Cl)cc2)nc2c1c(=O)[nH]c(=O)n2C	inconclusive: 31.6 µM [inhibitor, single point]	–
CCCC/C=C/C(NC(=O)c1ccc(-c2ccccc2)cc1)c1ccccc1 (configuration not stated)	active: 15.8 µM	–
CC(C)OC(=O)c1c(NC(=O)c2cnn3c2NC(c2ccccc2)CC3C(F)F)sc2c1CCCC2 (configuration not stated)	inconclusive: 1.58 µM [inhibitor, full curve, poor fit]	–
O=C(COC(=O)/C=C/c1cn(-c2ccccc2)nc1-c1cccnc1)Nc1ccc(Cl)cc1Cl	active: 10 µM	–
CCc1ccc(NC(=O)C2(c3cccs3)CCOCC2)cc1	–	inactive: -3.55%
CCC(=O)NC(/C=C/c1ccccc1)c1cc([N+](=O)[O-])c2cccnc2c1O (configuration not stated)	inconclusive: 39.8 µM [inhibitor, single point]	–
Fc1ccccc1/C=C1\CCCC2=C1Nc1nnnn1C2c1ccccc1F (configuration not stated)	inconclusive: 39.8 µM [inhibitor, single point]	–
